From the supplement of paper PMC11417369
± gives the standard deviation of the averaged measurements. The list shows a part of the results.

system: PfAP2-G AP2 domain (GST-tagged); assay: gcPBM binding intensity (ln(normalized median fluorescence intensity)); higher = stronger DNA binding
How it was run: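 GST-fused DNA-binding domains of P. falciparum, expressed in E. coli, were applied at about 25 μg on average for 1 h to an Agilent 4 × 180k array of primer-extended double-stranded 36-bp intergenic genomic probes and negative controls. Binding intensity is the highest Masliner-normalised natural-log median intensity across replicate spots of either probe orientation, measured with Alexa488 anti-GST antibody and a 488 nm scan.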

Sequence | gcPBM binding intensity (ln)
TATCATATATAAAGAGGTACGTAAGAATAGAAAATT [XGTACX_site798] | 11.1 ± 0.38
TTCTTAAAAGGAAAGGTGCAACTTTATCATTTTCTT | 9.82 ± 0.042
GTATATAATTAAAGTTGTACCCTTAAAAAAGGGAAA [XGTACX_site7278] | 11.4 ± 0.91
GATAACTTTTTTCTCACACACAAATATTTTAATCAT [CACACA_site7685] | 10.1 ± 0.17
AAAAATAAAAAAATAAATACGTATACATATATAATA [TGCATGCA_negctrl_site551] | 10.1 ± 0.11
GAACAAATTAAATAGGTGCATTAACATGTTCTATTT [GTGCAC_site9729] | 9.955 ± 0.021
TCTGTATATTATTCAAGTACACAATATAAATATAAA [XGTACX_site7241] | 11.4 ± 0.82
TATTGTTTTTTTTACTGTACACAAGTAAATGAAAAA [XGTACX_site790] | 11.6 ± 1.3
AAAAAATTCAAAAGGTGTACAACATTATATTATTCC [XGTACX_site5118] | 11.6 ± 0.78
TTATATATAAGTTTATTCATTTTTTTTTTTTTTTTT [XGTACX_negctrl_site573] | 9.995 ± 0.007
TAAATAAAAAAGAATACACACAGCATGCATAAATAT [CACACA_site237] | 10 ± 0.028
CATATATATCGTAATGCACACATGTAATTTCATAAT [CACACA_site811] | 10.18 ± 0.042
TATAATTATATGTATACACACACATACATTTACATA [CACACA_site9061] | 10.5 ± 0.53
AAAATGAAAATGAAAATGAAAATGGGAAAATGTCAA [TGCATGCA_negctrl_site488] | 9.98 ± 0.028
TCTTATATGATATTTATTTATTTATTTATTTATTCA [GTGCAC_negctrl_site686] | 9.52 ± 0.19
TAACACCAAACTAAATGTACACACATACATAAATAT [XGTACX_site2201] | 11.2 ± 0.79
AATAGTAATTTGAATACACACAATAATATATTTATA [CACACA_site7055] | 9.96 ± 0.042
TAAATGTGAACAATAGAAGTAATAAGAAGAATAAAA [CACACA_negctrl_site1080] | 10.03 ± 0.021
TTTATTTTTTGTGGCACACAGAAGAAACAAGAACAA [CACACA_site1696] | 10.8 ± 0.59
AATGAATAATTATTTTGTACATAATATTATATTTAT [XGTACX_site5350] | 10.7 ± 0.35
AAATTAAATGTAAGCACACATAAATTATACTCATAT [CACACA_site5782] | 10.02 ± 0.085
ACTTATACAAAATGTGCATGTTATATTTACAATAAT [TGCATGCA_site108] | 10 ± 0.11
TTTATTTTTTAATGATGTACTATTTATCCAGAAAAG [XGTACX_site7750] | 11.2 ± 0.92

Sequence | gcPBM binding intensity (ln)
GGAATAGTAATATATACACACAAATACATATATATA [CACACA_site67] | 9.99 ± 0.23
ATAATGAAAAGGAACATACACACCCCATATAAATAT [CACACA_site3442] | 10.2
ATAAGCTCATGCAGGTGTACACAAAAAGAAAAAAAA [XGTACX_site2433] | 11.6 ± 0.81
AAAAAAAAATACATATGTACTTATGTATAATGTTGT [XGTACX_site8104] | 11.1 ± 0.61
ATTATACCACCCGATATACACACTTGTAGACATCTT [CACACA_site7944] | 10.2 ± 0.16
TTTTTTTAATTAGTTTGTACATATTGTTATAATATA [XGTACX_site6294] | 10.8 ± 0.37
CATGTTATGATTCCATGTACTTATAGCATTAAAAAA [XGTACX_site8939] | 11.2 ± 0.71
ATAAAAAGGAGACACACACACACACGCATATTTATA [CACACA_site6551] | 10.3 ± 0.29
TATATTAAACCATGTAGTACCTTGAATAAATATTAT [XGTACX_site8254] | 11 ± 0.67
TATAAAAATGTTTACACACACACATAAATATATTTT [CACACA_site2512] | 10.035 ± 0.007
TTTTTTTTTTTTCTGAGTACGAAAAATAGAGATAGA [XGTACX_site3825] | 11 ± 0.79
TGTATAAATATAATCACACATATATATATATATATA [CACACA_site4365] | 9.96 ± 0.38
AACATATATATATATACATGCATATGAACAACGAAT [TGCATGCA_site93] | 9.955 ± 0.035
CAAGAAAATTGACACACACACATATTTATATTTATA [CACACA_site7766] | 10.2 ± 0.17
AAGTTACAAAATCAAAAGGAAAAAATATAAAATAAT [CACACA_negctrl_site561] | 9.81 ± 0.15
CAACTAATATTAAAACGTACATAAATATTTAACAGA [XGTACX_site625] | 11.3 ± 0.79
ATATATATATATATATGTACATATATTTTTATTTAT [XGTACX_site3508] | 11.2 ± 0.76
AAAAAAAATATATATGCACACACAAAAAAACAAATT [CACACA_site8349] | 10.2 ± 0.15
ATCACATATATATATAATATATATATGTATATATTT [GTGCAC_negctrl_site249] | 9.45 ± 0.11
TTGTAATAAAGAATTAAAAAAAAATATATACAGGTA [GTGCAC_negctrl_site150] | 9.885 ± 0.092
TTAAAATAAAGAAAATGTACATAAATAAAAATAAAG [XGTACX_site2280] | 11.3 ± 0.69
TTTTACCTAAATATCACACATATTTAAATATATATA [CACACA_site5597] | 10 ± 0.15
TATACCTTTTTATTCACACATATATGTCATATGTCA [CACACA_site5423] | 9.95 ± 0.071

Sequence | gcPBM binding intensity (ln)
TTAATTACATGTAATTGTACTTAATTATAAGACATT [XGTACX_site464] | 11.1 ± 0.86
TATTACTTATAAATTACACACAAATGATTGAACATT [CACACA_site2259] | 9.935 ± 0.064
TATAATAATTATACATGTACACATTATTTGGATAAA [XGTACX_site5552] | 11.6 ± 0.98
TTTTTATATTTAATGTGTCCTCACTTAAAAGGATGA [XGTACX_site2744] | 11.1 ± 0.81
ATTCTCCAAGTTTGATGTACACATATGACGACGGCG [XGTACX_site4912] | 11.4 ± 0.89
AATATATTTTTTGGTTGTACAGAGATCTTTGTAGAA [XGTACX_site1707] | 11.1 ± 0.72
CATATAGCATAATCATGTACACATACAACAAATAGG [XGTACX_site1589] | 11.5 ± 0.77
AAAAATTATAGAAAAGTGCAATACATGTTACACCAT | 10.1 ± 0.13
TACAATAAGGATAAGTGTACATATGTGCATACATAT [XGTACX_site7188] | 11.1 ± 0.61
TATATATATATATATACACACTATATAATTCAAACA [CACACA_site4712] | 10.1 ± 0.63
ATGAATAAATTAAAAATGCACACTTTGATGGGTACA [CACACA_site2157] | 10.7 ± 0.43
AAACTTGTAAGAAACACACACACACCCATATATATA [CACACA_site797] | 10.1 ± 0.29
AAATTGGGGCTTGTTACACACTTAGTGGGAGTTCTA [CACACA_site4485] | 10.5 ± 0.42
TTACGATTATACAAAAGTACATGTATTACACAATAT [XGTACX_site5138] | 11.3 ± 0.86
TATACCAGTTTTAAAAGTACTTGTGCATAAAAAATA [XGTACX_site4794] | 11.2 ± 0.7
TATATTTTCCTGCAAACACACATATAAATGTGTAGA [CACACA_site533] | 10.1 ± 0.16
TAATAATAAAAATAAACACACATATATATGTATATA [CACACA_site2853] | 9.88 ± 0.099
ATATTTATTTATTTATGTACGCACACAGTTGATATT [XGTACX_site5808] | 11.7 ± 1
CACTATATAAGAACCTGTACTCAATTTTGCAATATA [XGTACX_site7238] | 11.3 ± 0.76
AAATTATATTCAAGTGCATGTAACTTATTATTATAT [TGCATGCA_site526] | 9.94 ± 0.085
AATCTTAAAAATATATGTACTAAAAAAAAAAAAAAT [XGTACX_site6195] | 11.2 ± 0.81
AACATGCTCAACTTTTTTTTTTTTTTTTTTTTTTTT [CACACA_negctrl_site1617] | 10.8 ± 0.48
GTAAAAATAAAAACTGGTACACAAGTTGTTATAAAA [XGTACX_site502] | 11.3 ± 0.72

Sequence | gcPBM binding intensity (ln)
AAAATAAAATAAAAGTGTACGTTTTAAGAACATTGA [XGTACX_site2382] | 11.5 ± 0.95
CTTTTTTGTTAAAGTGTGCGCAATAGTTATAGACTT [GTGCAC_site9670] | 10.7 ± 0.52
TATAATCAATATGTAACACACAAAAGTTATATACTT [CACACA_site7368] | 9.92 ± 0.11
ATATGTATATATAAGGTGCAGAAAGGTGGGCAAAAG | 10.9 ± 0.59
TAAATACAGATATATACACACATATATATATTTTAT [CACACA_site5970] | 9.755 ± 0.007
TACATTTATATATATACACACACACTAATAAAAAAA [CACACA_site8845] | 10.2 ± 0.28
TACAGACTAAAATACACACACACACGCACATATATA [CACACA_site7875] | 10.3 ± 0.17
TTTTTCTTTATTAGCACACATAATATTATATATGTG [CACACA_site2629] | 10.4 ± 0.2
TCATATATTTTAATATGTACACATTTTTTTGGTATA [XGTACX_site8695] | 11.5 ± 0.72
ATAATAAATAAATAATGTACATATGAAAGAATAAAT [XGTACX_site8355] | 11.1 ± 0.49
CTTTTGTCATTCTTTTGTACACAGTTTGAAATATGT [XGTACX_site1457] | 11.2 ± 0.68
AAATAGAGAAATACAAGTACATATCAAACCAATATA [XGTACX_site1192] | 11.2 ± 0.8
ATAAAAAAGAAACAAACACACATACATACAAACAAA [CACACA_site4256] | 10.2 ± 0.22
AAAAAAAACGGACACACACACATACCCATACATACA [CACACA_site5574] | 11.3 ± 0.91
ATATAAATACATAAATGTACTTACCATTTAAATATG [XGTACX_site5254] | 11.2 ± 0.72
TTCACCAGTTGGTAAACATGCAATTTTCCATACAAG [TGCATGCA_site267] | 10 ± 0.15
ATTCTTTTAAAATAGGTGCTAAAAATAATATGTTAC | 10.02 ± 0.085
GCATATGTTTATTGCACACACCAAAAAGAAAACATA [CACACA_site4384] | 10.2 ± 0.21
AAAGAAAGAAGAAATTGTACATAATAAATAAGTAAA [XGTACX_site3311] | 10.8 ± 0.57
ATATAAACAATATTTTGTACATAATTTTATGAGCAT [XGTACX_site6933] | 10.8 ± 0.35
